Experimental data published in publication PMC2749821.
No constants are given. Whether binding was seen depends on the method and setting. Some entries that bind do so weakly or less than the wild type.

Amino acid sequences for entries named in this document (tags omitted). A change or cut given only in a name is not applied to a line headed by its entry. Residues count along the entry.
UniProt P18075, residues 293-431: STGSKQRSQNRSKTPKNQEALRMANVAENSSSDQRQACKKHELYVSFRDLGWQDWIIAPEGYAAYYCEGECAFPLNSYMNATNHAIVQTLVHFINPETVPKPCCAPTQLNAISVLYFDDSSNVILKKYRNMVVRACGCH
UniProt P36896, residues 24-126: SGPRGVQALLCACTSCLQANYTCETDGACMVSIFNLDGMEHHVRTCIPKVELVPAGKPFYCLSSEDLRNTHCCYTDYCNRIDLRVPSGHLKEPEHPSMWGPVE

Experiments:
[1] = target: bone morphogenetic protein 7 (BMP7), human (human) (UniProt P18075); assay: SPR; Biacore 2000; receptor ectodomains as analyte over biotinylated ligands on streptavidin-coated CM5 chips; HBS500, 25°C, 10 μl/min; apparent affinities, 1:1 interaction; both purified
[2] = target: activin receptor type IB (ActR-IB) ectodomain, human (human) (UniProt P36896); assay: SPR; Biacore 2000; ligands as analyte over biotinylated receptor ectodomains (about 200 RU) on streptavidin-coated CM5 chips; HBS500 (10 mM HEPES pH 7.4, 500 mM NaCl, 3.4 mM EDTA, 0.005% P20), 25°C, 10 μl/min; apparent affinities, 1:2 interaction with avidity; both purified
[3] = target: activin receptor type II (ActR-II) ectodomain, human (human) (UniProt P27037); assay: SPR; ligands as analyte over immobilized receptor ectodomains, 0.36% CHAPS added to HBS500 buffer; both purified
[4] = target: T1, activin receptor type I (ActR-I) ectodomain, human (human) (UniProt Q04771); assay: SPR; Biacore 2000; ligands as analyte over biotinylated receptor ectodomains (about 200 RU) on streptavidin-coated CM5 chips; HBS500 (10 mM HEPES pH 7.4, 500 mM NaCl, 3.4 mM EDTA, 0.005% P20), 25°C, 10 μl/min; apparent affinities, 1:2 interaction with avidity; both purified
T1 sequence (chain, N-biotinylated (sulfo-NHS-LC-biotin) where immobilised): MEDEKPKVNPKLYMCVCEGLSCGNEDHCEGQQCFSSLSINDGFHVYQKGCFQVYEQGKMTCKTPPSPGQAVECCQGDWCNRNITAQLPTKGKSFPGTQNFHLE

For “activin receptor type IB (ActR-IB) ectodomain, human (from UniProt P36896 24-126)”, the binding [1] was “no binding”.
In the case of “bone morphogenetic protein 7 (BMP7), human (from UniProt P18075 293-431) (ligand)”, the binding [2] was “no binding (tested: ligand concentrations up to 120 nM)” and the binding [3] was “binds”.
With “growth and differentiation factor 5 (GDF5), mature part (from UniProt P43026 387-501) (ligand)” the binding [2] was “no binding (tested: ligand concentrations up to 120 nM)” and the binding [4] was “no binding (tested: ligand concentrations up to 120 nM)”.
